# From PubChem BioAssay AID463173 (ICCB-Longwood Screening Facility, Harvard Medical School, 2010)
# Out of some 52,000 compounds screened, about 1,700 (3.3%) were called active. Cut-off read from the data, not from the text of the source: active = survival mostly below about 52% (no sharp cut-off); inactive = mostly above about 56%. The list shows a part of the results.
# Tested on: Wild type
# Test: S. aureus survival, RN4220 and DeltatarO strains – OD600, teichoic acid synthesis inhibitors, primary screen (AID 463173)
# Conditions: S. aureus RN4220 wild type/DeltatarO growth, OD600, 18 h, hits give low values, screened at 18.75 µg/mL (by protocol)
row,Structure (SMILES),survival
1,Cc1cc(N2CCCCC2)nc2ccc(NC(=O)c3ccc(F)cc3)cc12,inactive: 62%
2,CCOC(=O)c1c(NC(=O)CSc2cn(CCNC(=O)c3ccc(OCC)cc3)c3ccccc23)sc2c1CCCC2,inactive: 76%
3,CCOc1ccc(C(=O)Nc2ccc(S(=O)(=O)N(Cc3ccccc3)c3ccccc3)cc2)cc1,inactive: 81%
4,COc1ccc(OC)c(C2CC(=O)N(c3cccc(C)c3)C3=C2C(=O)OC3)c1 (stereo not drawn),inactive: 144%
5,O=C(c1ccco1)N1CCN(c2ncnc3sc4c(c23)CCC4)CC1,inactive: 103%
6,O=C(COc1ccccc1)Nc1ccc(OCc2cc(=O)n3ccsc3n2)cc1,inactive: 91%
7,COCCNC(=O)CSc1nc(-c2ccc(F)cc2)[nH]c1-c1ccc(Cl)cc1,inactive: 76%
8,CC(CNC(=O)Cn1ncc2c3ccccc3n(Cc3cccc(Cl)c3)c2c1=O)c1ccccc1 (stereo not drawn),inactive: 88%
9,CN(C(=O)CSc1nc2ncccc2o1)c1ccc(F)cc1,inactive: 60%
10,Cc1cc(F)ccc1Nc1nc2ccccc2n2nnnc12,inactive: 124%
11,CNS(=O)(=O)c1cn(CC(=O)Nc2ccc(OC)c(Cl)c2)cc1S(=O)(=O)NC,inactive: 88%
12,COc1ccccc1N1CCN(S(=O)(=O)c2ccc(-c3cc(C(F)(F)F)on3)s2)CC1,inactive: 69%
13,O=C(CSc1nc2cc3ccccc3cc2[nH]1)Nc1cccc(C(F)(F)F)c1,inactive: 82%
14,Cn1c(=O)c2c(ncn2CC(=O)N(CC(=O)NC2CCCCC2)Cc2ccccc2Cl)n(C)c1=O,inactive: 114%
15,Cc1ccc2c(c1)C(C(=O)O)=Cc1ccccc1O2,inactive: 110%
16,O=C(Nc1ccc(Cl)cc1)C1C2CCCCC21 (stereo not drawn),inactive: 116%
17,CC(C)CCNC(=O)C(=O)Nc1c2c(nn1-c1ccccc1)CS(=O)(=O)C2,inactive: 90%
18,COc1cccc(CNc2ncnc3onc(-c4ccc(F)cc4)c23)c1,inactive: 82%
19,COCc1cc(C)nc2sc3c(c12)NC(c1ccc(NC(C)=O)cc1)N(c1ccc(C)cc1)C3=O (stereo not drawn),inactive: 77%
20,CS(=O)(=O)N1CCN(c2ccccc2F)CC1,inactive: 99%

row,Structure (SMILES),survival
1,CCOC(=O)c1cc(OC(=O)c2cccc(C)c2)n(-c2ccccc2)n1,inactive: 73%
2,CCN(c1ccccc1)c1nnc(NC(=O)Nc2cccc(C(F)(F)F)c2)s1,inactive: 89%
3,CC(=O)NCCc1nc2ccccc2n1CCCCOc1ccc(Cl)cc1,inactive: 95%
4,O=c1c2ccccc2n(Cc2cccc(Cl)c2)c(=O)n1CCc1ccccc1,active: 39%
5,COCc1cc(C)nc2sc3c(=O)n(-c4cc(C)ccc4C)nnc3c12,inactive: 84%
6,CCOC(=O)c1ccccc1NC(=O)N1CCN2CCCCC2C1 (stereo not drawn),inactive: 72%
7,Cc1ccc(C)c(N2CCN(c3ncnc4onc(C)c34)CC2)c1,inactive: 97%
8,CCN1C(=O)/C(=C2\C=Cc3ccccc3N2CC)SC1=S,inactive: 99%
9,Cn1cccc1C(C(=O)NC1CCCCC1)N(C(=O)Cn1nnc2ccccc21)c1cnc2ccccc2c1 (stereo not drawn),inactive: 111%
10,O=C(Cc1ccccc1)N/N=C/c1cccs1,inactive: 113%
11,COc1ccccc1CCNC(=O)Cc1c(C)c2ccc(O)cc2oc1=O,inactive: 74%
12,CC(=O)Nc1nonc1-c1nnc(SCC(=O)Nc2cc(C)ccc2C)n1-c1ccccc1,inactive: 112%
13,COc1ccc(CNc2nc3c(S(=O)(=O)c4ccccc4)nnn3c3ccc(Cl)cc23)cc1,inactive: 89%
14,CCOc1ccc(Nc2oc(/C=C/c3ccc(F)cc3)nc2C#N)cc1,inactive: 111%
15,Cc1ccc(OCC(=O)Nc2ccc(C(=O)OCc3cc(=O)n4nc(C5CC5)sc4n3)cc2)cc1,inactive: 81%
16,COc1ccc(NC(=O)c2oc3c(c2C)-c2nn(Cc4c(F)cccc4Cl)cc2CC3)c(OC)c1,inactive: 92%
17,Cc1ccc(NC(=O)C(=O)NCC(c2cccnc2)N2CCN(C)CC2)cc1C (stereo not drawn),inactive: 89%
18,O=C(CSc1nc(=O)[nH]c2c1CCCC2)Nc1cc(C(F)(F)F)ccc1Cl,inactive: 77%
19,COc1ccc(-c2nnc(Nc3ccc(OCC(N)=O)cc3)c3ccccc23)cc1,inactive: 90%
20,Cc1cc(C)c2c(CC(=O)Nc3nnc(C(C)C)s3)coc2c1,inactive: 93%

row,Structure (SMILES),survival
1,Fc1ccccc1CNCCCSc1nnnn1-c1ccccc1,inactive: 87%
2,CCc1ccc(NC(=O)c2cc3ccccn3n2)cc1,inactive: 95%
3,Cc1nc2cc(C(F)(F)F)ccc2n1C1CCN(C(=O)C2CC2)CC1,inactive: 95%
4,O=C1CCSC2(C(=O)N(Cc3ccc(F)cc3)c3ccccc32)N1c1ccccc1 (stereo not drawn),inactive: 83%
5,CCOC(=O)c1ccccc1NC(=O)CSc1ccc(-c2sc(-c3ccccc3)nc2C)nn1,inactive: 57%
6,Cc1cc(C)n(-c2nc3ccccc3nc2Nc2cccc(C(F)(F)F)c2)n1,inactive: 86%
7,Cc1c(C(=O)NN)c2cc(O)ccc2n1C,inactive: 107%
8,COc1ccc(C2C(C(=O)Nc3ccccc3)=C(C)Nc3nc(-c4ccccc4)nn32)cc1OC (stereo not drawn),inactive: 86%
9,COc1ccc(OC)c(-c2nc(Nc3ccccc3C)sc2CC(=O)O)c1,inactive: 82%
10,CC(C)c1ccc(NC(=O)C2CCCN(S(=O)(=O)c3ccc(Br)s3)C2)cc1 (stereo not drawn),inactive: 65%
11,COc1cccc(C(=O)Nc2ccccc2C(=O)OCc2cc(=O)n3nc(C)sc3n2)c1,inactive: 80%
12,COc1ccc(NC(=O)C(=O)NCCc2ccccc2)cc1OC,inactive: 72%
13,CC(C)CCNC(=O)CN1C(=O)COc2ccc(S(=O)(=O)N3CCOCC3)cc21,inactive: 82%
14,COc1ccc(-n2cc(-c3ccccc3)c3c(SC(C)C(C)=O)ncnc32)cc1 (stereo not drawn),inactive: 67%
15,CCc1ccc(NS(=O)(=O)c2ccc3[nH]cc(C(=O)NC4CCCC4)c(=O)c3c2)cc1,active: 9%
16,CCOC(=O)c1cccc(NC(=O)c2cc3c(Cl)nc4ccc(C)cc4c3s2)c1,inactive: 116%
17,COc1cc(OC)c(OC)cc1CN1CCc2nc(N3CCN(c4ncccn4)CC3)ncc2C1,inactive: 80%
18,Fc1ccc(-c2cc(-c3nc(-c4cccc(Cl)c4)no3)[nH]n2)cc1,inactive: 75%
